Data taken from PubChem BioAssay AID624296 (National Center for Advancing Translational Sciences (NCATS), 2012).
Hit rate of the full screen: of about 350,000 compounds, about 9,900 (2.8%) were called active. Inconclusive means that the source gave no clear call. Such entries were picked first, then a sample of the others. Calls follow the shape of the dose curve; as a rule, active = well fitted activation curve with a large enough effect; inconclusive = small, poorly fitted or top-dose-only effect; inactive = no such curve, though single readings can be large or run the other way. Potencies of inconclusive entries are left out as doubtful fits.

Test: A quantitative high throughput screen for small molecules that induce DNA re-replication in MCF 10a normal breast cells. Also: nearly all actives have a fitted effect of over 50% in size.
Conditions: MCF 10A DNA re-replication, Hoechst nuclear intensity, 48 h; series mostly up to 46.1 µM
Potency is read from the fitted curve at half-maximal effect; tags tell the direction and shape of the fitted curve.

Row | Compound | Potency
1 | CC(C)(C)OC(=O)NC(CNCc1ccccc1)Cc1ccccc1 (stereo not drawn) | inconclusive [activator, full curve, poor fit]
2 | Cc1ccc(CN(C)C(=O)c2ccc(S(=O)(=O)N(C)c3ccccc3)cc2)o1 | inconclusive [activator, full curve]
3 | CCOC(=O)c1c(C)[nH]c(C)c1S(=O)(=O)N1CCN(c2ccc(F)cc2)CC1 | inactive
4 | O=C(C[C@@H]1C/C=C\C[C@H](Cc2ccc(F)cc2)C(=O)OC[C@H]2CCCN2C1=O)N[C@H](CO)Cc1ccccc1 | inactive
5 | CC(=O)Nc1cccc(OCc2cnc(Cl)s2)c1 | active: 0.146 µM
6 | c1ccc(-c2nnc(-c3c[nH]c4ccccc34)nc2-c2ccccc2)cc1 | inactive
7 | Cc1ccc(NNC(=O)c2cc(C(C)(C)C)nn2Cc2ccccc2)cc1 | inconclusive [activator, single point]
8 | COc1ccc(N(CC(=O)N2CCN(c3cc(C)ccc3C)CC2)S(=O)(=O)c2c(C)noc2C)cc1 | inconclusive [activator, full curve, poor fit]
9 | Cc1cnc(C)c(N2CCN(Cc3nc(-c4ccc(C)o4)oc3C)CC2)n1 | inactive
10 | CC(=O)N1N=C(c2cccc([N+](=O)[O-])c2)OC1c1ccc(Cl)cc1Cl (stereo not drawn) | inconclusive [activator, single point]
11 | Cc1ccccc1CN(C)CC(=O)Nc1ccccc1-c1ccccc1 | active: 14.6 µM
12 | Cc1ccc(SC[C@H](c2ccccc2)N2CCN(CCc3ccccc3)CCC2=O)cc1 | active: 8.2 µM
13 | CC(=NNc1nc2ccccc2s1)c1ccncn1 | active: 7.31 µM
14 | CCC(CO)n1c(SCc2cc(=O)oc3cc(C)ccc23)nc2ccccc2c1=O (stereo not drawn) | inconclusive [activator, single point]
15 | CC(NC(=O)COC(=O)CCC(=O)c1ccc(F)cc1)c1ccccc1 (stereo not drawn) | inactive
16 | O=C(NC(=O)c1cc([N+](=O)[O-])ccc1Cl)C1=C(N2CCCC2)COC1=O | inactive
17 | CC1(C)CCC[C@@]2(C)CC=C(C(=O)O)[C@@H]3C[C@]312 | inconclusive [activator, full curve, poor fit]
18 | CCc1ccc(Nc2cc(C)nc3ncnn23)cc1 | inactive
19 | CCCCc1ccc(-c2ccc(Br)cc2)nc1 | inconclusive [activator, single point]
20 | Cc1ccccc1NC(=O)Nc1nnc(Cc2ccc([N+](=O)[O-])cc2)s1 | inactive
21 | COc1ccc(F)cc1CN1CCN(C(=O)c2ccc(S(=O)(=O)N3CCCCCC3)cc2)CC1 | inactive
22 | CNCCOc1ccccc1C(C)(C)C | inactive
23 | O=C(Nc1ccc(N2CCCC2)c(Cl)c1)c1cccs1 | inconclusive [activator, full curve, poor fit]
24 | Cc1ccc(OCCNC(=O)C2CC(=O)N(Cc3ccccc3)C2)cc1 (stereo not drawn) | inactive
25 | COCCN1Cc2cccc(C(=O)Nc3cccc(-c4nc5ccccc5[nH]4)c3)c2C1=O | inconclusive [activator, partial curve, poor fit]

Row | Compound | Potency
26 | Cc1ccccc1Nc1nc(N)nc(CSc2nc3ccccc3c(=O)n2C)n1 | inconclusive [activator, partial curve]
27 | O=C(OCC#CCSc1nc2ccccc2s1)c1ccco1 | inconclusive [activator, single point]
28 | CCN(C(=O)COC(=O)c1cc(=O)[nH]c2ccccc12)C1CCS(=O)(=O)C1 (stereo not drawn) | inactive
29 | Cc1ccc(N2CC(O)=C(c3nc4ccccc4c(=O)[nH]3)C2=N)cc1C | inconclusive [activator, single point]
30 | O=C1NC2(CCCCCC2)C(=O)N1Cc1cccc([N+](=O)[O-])c1 | inactive
31 | O=C(O)CN1C(=O)/C(=C\c2cccc(OCc3ccc(F)cc3)c2)SC1=S | inconclusive [activator, partial curve, poor fit]
32 | CC(=O)c1c(C)[nH]c(C(=O)OCC(=O)Nc2ccc([N+](=O)[O-])cc2Cl)c1C | inconclusive [activator, single point]
33 | CCCOc1ccc(NC(=O)CC2Nc3ccccc3NC2=O)cc1 (stereo not drawn) | inconclusive [activator, partial curve, poor fit]
34 | COc1ccc(N(CN2C(=O)C3CCCCC3C2=O)C(=O)c2ccco2)cc1 (stereo not drawn) | inactive
35 | CC(=O)c1ccc(-c2cccc(-c3nc4ccccn4c3NC3CCCCC3)c2)cc1 | inconclusive [activator, partial curve, poor fit]
36 | COc1cc(C(=O)N2CCN(S(=O)(=O)c3cc(C)ccc3C)CC2)ccc1OCC(=O)N1CCOCC1 | inactive
37 | COC(=O)c1ccccc1NC(=O)C1CC(=O)N(c2ccc(C)c(C)c2)C1 (stereo not drawn) | inconclusive [activator, single point]
38 | O=C(COC(=O)c1cc([N+](=O)[O-])ccc1N1CCOCC1)Nc1ccc(Cl)cn1 | inconclusive [activator, partial curve, poor fit]
39 | Cc1cccc(C)c1NC(=O)NCc1ccco1 | inactive
40 | CNCC(=O)N1CCN(c2ncc(C(F)(F)F)cc2Cl)CC1 | inconclusive [activator, single point]
41 | Cc1cccc(NC(=O)CC2C(=O)NCCN2C(=S)Nc2ccccc2)c1 (stereo not drawn) | active: 16.4 µM
42 | Cc1ccc(C(=O)OCC(=O)N2CCC(c3ccccc3)=N2)cc1 | inactive
43 | Cc1cccc(NC(=O)Nc2cccc(C#N)c2)n1 | inconclusive [activator, partial curve, poor fit]
44 | CCOc1ccc(C(=O)C[n+]2ccc(C(=O)NCCO)cc2)cc1 | inconclusive [activator, single point]
45 | NC(=O)c1ccc(/C=N/O)[n+](Cc2ccccc2)c1 | inactive
46 | CCOc1ccc(-c2nnn(CC(=O)N3CCN(c4ccc(OC)cc4)CC3)n2)cc1OCC | inconclusive [activator, single point]
47 | Cc1ccccc1SCC(=O)Nc1cc(C(F)(F)F)ccc1N1CCOCC1 | inactive
48 | COc1ccc2cc(CN(CC3CCCO3)C(=O)Nc3ccccc3OC)c(=O)[nH]c2c1 (stereo not drawn) | active: 18.4 µM
49 | CCOC(=O)c1cc(C)n(Cc2ccc(OCC)c(OC)c2)c1C | inactive
50 | O=C(O)c1cccc(NC(=S)N/N=C/c2ccccc2OCc2cccc(Br)c2)c1 | inconclusive [activator, single point]

Row | Compound | Potency
51 | Nc1cc(=O)[nH]c(SCC(=O)NNC(=O)Cc2ccccc2)n1 | inactive
52 | CCOc1ccc(NC(=O)CN(C)C(=O)CSc2ccccc2)cc1OCC | inactive
53 | O=C(COC(=O)c1ccc(Br)o1)Nc1ccc(N2CCOCC2)cc1 | inactive
54 | Cn1cc([N+](=O)[O-])c(C(=O)Nc2ccc(Br)cn2)n1 | inconclusive [activator, single point]
55 | O=C1CCCCC1C(Nc1ccc(Cl)cc1)c1ccccc1 (stereo not drawn) | inconclusive [activator, partial curve, poor fit]
56 | COc1ccc(C(=O)N/N=C\C(C)=C\c2ccccc2)cc1OC | inconclusive [activator, partial curve, poor fit]
57 | Cn1nc(C(=O)NCc2ccccc2)c2ccccc2c1=O | inactive
58 | O=C(Nc1cccc(-n2cccn2)c1)C1CCCN(Cc2cccc(F)c2F)C1 (stereo not drawn) | inactive
59 | CSCCC(NS(=O)(=O)c1ccc2c(c1)oc(=O)n2C)C(=O)NCc1cccs1 (stereo not drawn) | inconclusive [activator, single point]
60 | COc1ccc(C(=O)CSC2=NS(=O)(=O)c3cc(Cl)ccc3N2)cc1 | inactive
61 | Cc1noc2ncnc(Sc3ccccc3Cl)c12 | inconclusive [activator, single point]
62 | COc1ccc(CNCCS(=O)(=O)NCc2ccc(OC)cc2)cc1 | inactive
63 | Cc1ccc(C2CCN(C(=S)NC3CCCCC3)C2)cc1 (stereo not drawn) | inconclusive [activator, single point]
64 | CC1(C)CC(=O)C2=C(C1)N(CCN1CCOCC1)C1=C(C(=O)CC(C)(C)C1)C2c1ccc(Cl)cc1 | inconclusive [activator, partial curve, poor fit]
65 | O=C(Nc1ccc2c3c(cccc13)CC2)c1ccco1 | inconclusive [activator, partial curve]
66 | CN(C)CCNC(=O)COc1cccc2c1OC(C)(C)C2 | inactive
67 | O=C(CSC(=S)N1CCOCC1)Nc1nccs1 | inactive
68 | Cc1cc(C)n(-c2nc(SCCN(C)C)c3c4c(sc3n2)COC(C)(C)C4)n1 | inconclusive [activator, full curve, poor fit]
69 | O=C(NC1CCCCCC1)c1cccc(N2CCCC2=O)c1 | inconclusive [activator, single point]
70 | CC(Sc1nc(O)c(-c2ccccc2)c(=O)[nH]1)C(=O)Nc1ccc(Cl)cc1 (stereo not drawn) | inconclusive [activator, single point]
71 | CCOC(=O)N1CCC(NS(=O)(=O)c2cc3c(cc2Cl)NC(=O)CO3)CC1 | inconclusive [activator, partial curve, poor fit]
72 | c1ccc(-c2c(-c3ccccc3)n(Cc3ccco3)c3ncnc(NCCCn4ccnc4)c23)cc1 | inconclusive [activator, single point]
73 | COc1ccc(C)cc1NC(=O)CSc1nnc2ccc(-c3ccccn3)nn12 | inconclusive [activator, single point]
